The source of these data is article PMC5438246.

Assay [1] deals with T1, YFP:NPSN11 (Qb-SNARE NPSN11 fused to YFP, estradiol-inducible) (Arabidopsis thaliana) (UniProt Q944A9).
T1 sequence: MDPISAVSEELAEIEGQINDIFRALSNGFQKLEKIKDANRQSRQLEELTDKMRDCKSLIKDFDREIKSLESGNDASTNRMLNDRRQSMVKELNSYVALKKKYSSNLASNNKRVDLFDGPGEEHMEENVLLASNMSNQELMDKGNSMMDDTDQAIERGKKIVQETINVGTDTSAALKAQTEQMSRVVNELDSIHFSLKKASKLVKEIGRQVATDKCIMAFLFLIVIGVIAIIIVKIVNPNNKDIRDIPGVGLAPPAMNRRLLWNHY
In words: co-IP; protein extracts of Arabidopsis seedlings (wild type, big3, or gnl1 GNL1^BFA-sens.) with estradiol-induced YFP:NPSN11 or GFP:SNAP33, with or without 50 µM BFA (30 min, then BFA + 20 µM estradiol 210 min; traffic blocked at the TGN or at the ER); anti-GFP beads (GFP-trap) 2 hr in the cold; 50 mM Tris pH 7.5, 150 mM NaCl, 1 mM EDTA, 0.5% Triton X-100 (washes 0.2%); immunoblot. (In general: Immunoblotting shows a protein as a band on a membrane.)

Assay [2] addresses T2, GFP:SNAP33 (Qbc-SNARE SNAP33 fused to GFP, estradiol-inducible) (Arabidopsis thaliana) (UniProt Q9S7P9).
T2 sequence: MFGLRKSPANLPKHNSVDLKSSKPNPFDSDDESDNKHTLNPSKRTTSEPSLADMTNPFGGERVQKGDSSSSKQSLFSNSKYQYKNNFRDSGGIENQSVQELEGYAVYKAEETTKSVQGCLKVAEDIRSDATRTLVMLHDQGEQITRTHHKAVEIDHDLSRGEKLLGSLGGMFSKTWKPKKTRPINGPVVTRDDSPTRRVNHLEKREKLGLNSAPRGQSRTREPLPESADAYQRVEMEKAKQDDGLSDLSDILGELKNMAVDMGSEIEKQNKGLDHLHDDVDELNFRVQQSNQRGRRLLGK
Described as above.

No constants are given. Whether binding was seen depends on the method and setting. Binding seen in cells or lysates may run through a third protein. Some binding calls cover weakened binding; strength is not graded here. Tags and fused reporters may be left off the sequences shown.

B1: Qc-SNARE SYP71 (protein, UniProt Q9SF29 1-266)
chain: MTVIDILTRVDSICKKYDKYDVDKQREANISGDDAFARLYGAFETQIETALEKAELVTKEKNRAAAVAMNAEIRRTKARLSEEVPKLQRLAVKRVKGLTTEELAARNDLVLALPARIEAIPDGTAGGPKSTSAWTPSSTTSRPDIKFDSDGRFDDDYFQESNESSQFRQEYEMRKIKQEQGLDMISEGLDALKNMASDMNEELDRQVPLMDEIDTKVDRATSDLKNTNVRLKDTVNQLRSSRNFCIDIVLLCIVLGIAAYLYNVLK
For the molecule B1, the binding result in assay [1] was “binds”; in assay [2] it was “no binding”.

B2: Qbc-SNARE SNAP33 (endogenous) (protein, UniProt Q9S7P9 1-300)
chain: T2 sequence
For B2, the binding entry in assay [1] is “no binding”.

B3: mRFP:PEP12 (Qa-SNARE PEP12 aka SYP21, mRFP-tagged, pKNOLLE::mRFP:PEP12) (protein, UniProt Q39233 1-279)
chain: MSFQDLEAGTRSPAPNRFTGGRQQRPSSRGDPSQEVAAGIFRISTAVNSFFRLVNSIGTPKDTLELRDKLQKTRLQISELVKNTSAKLKEASEADLHGSASQIKKIADAKLAKDFQSVLKEFQKAQRLAAEREITYTPVVTKEIPTSYNAPELDTESLRISQQQALLLQSRRQEVVFLDNEITFNEAIIEEREQGIREIEDQIRDVNGMFKDLALMVNHQGNIVDDISSNLDNSHAATTQATVQLRKAAKTQRSNSSLTCLLILIFGIVLLIVIIVVLV
As for B3, the binding result in assay [1] and in assay [2] was “no binding” in each case.
